From the RNAGym collection of RNA variant scans (doi:10.7554/elife.90254)
The source gives no read counts; variants with many changes may rest on few reads.

B1: LINE1-mini (parent)
chain: GGCAGAGCUCAACACAGCGUGGCAAAGUGGCUGUGGCUAGACUGCC

Variants of: B1
Assay: self-cleavage, relative activity (ratio to wild type); higher = more cleavage; in vitro, sequencing; the parent is a self-cleaving ribozyme

| Variant | self-cleavage |
| --- | --- |
| G21U C31A C37G U38A U43C | 0.04 |
| G19C G40A U43C C46G | 0.01 |
| G21C G30A G40A | 0.17 |
| G19U G44A C45A | 0.04 |
| G19C U28A C42U G44U C45U | 0.02 |
| G19U C23U C46U | 0.71 |
| G21A G27U G30A | 0.55 |
| U20C G21U U28A G33C U38C | 0.02 |
| G19U G30A G40C A41U | 0.06 |
| U20C G33U G40A C45A | 0.03 |
| G21C U34G G36A A41C | 0.04 |
| U20A G33A U38C | 0.05 |
| U20G A24U C31A G44U | 0.01 |
| U20A G35A A39U G44U | 0.03 |
| G19U G35U C42A G44U | 0.01 |
| G19C U20A C45U | 1.37 |
| U20A G35C A39G C46A | 0.1 |
| U20G G21A U28C G30U | 0.25 |
| U20C G33U C37A | 0.06 |
| G21U A24G G29U A41U | 0.15 |
| G21U G30C G35C A39C | 0.06 |
| G21U G29C G36C G44U | 0.05 |
| U20G G44U C46A | 0.09 |
| G21A U34A G44U | 0.03 |

| Variant | self-cleavage |
| --- | --- |
| U20C U32A C46A | 0.05 |
| U20C U28A G30C | 1.09 |
| U20A C31U G35A | 0.04 |
| G21A U32A G33A | 0.03 |
| G19C U20C G27U | 0.18 |
| G19U G21U U28A U34C | 1.11 |
| U20G C23U G27C U38A | 0.17 |
| G21A G36U G40U | 0.21 |
| G21A G22C C45A | 1.16 |
| U20C G21A U28G C31A | 1.24 |
| G21U C31U A39G | 0.03 |
| G21U A24G C37U | 0.03 |
| G21C G22A G27C | 0.42 |
| U20C G21C A25G G33U | 0.26 |
| G21A G29A C46A | 1.59 |
| G19U U20A G22C A25G | 0.78 |
| G21U G22C U34A G36A U38C | 0.1 |
| G21A U28A C37G C46U | 0.07 |
| G19U G27U U38A A41G | 0.34 |
| U20C C23U A24G | 0.13 |
| G21A A26G G36C A39C | 0.01 |
| G21U C31A G40U | 0.03 |
| G19U G36U C37A U43C | 0.13 |
| G21U G22A G27C G40A | 0.09 |

| Variant | self-cleavage |
| --- | --- |
| U20A G30C C42U | 0.14 |
| U20A U28G U38G | 0.02 |
| G21C U32C G36A | 0.05 |
| G19U A25G G44U | 0.52 |
| G21C U38G C42G U43A | 0.02 |
| U20A G21C A41G C46A | 0.13 |
| G19U U20A C23A G36C | 0.04 |
| U20A G21A U28C G44U | 0.32 |
| G19C U43C C46U | 0.04 |
| G19U G30C C31U | 0.6 |
| G21U G30A C37A | 0.01 |
| U20G G40U A41C | 0.12 |
| G19U A26G U38G | 0.07 |
| U20C A24G G35U | 0.05 |
| G19U C37A A39C | 0.2 |
| G19C G30C A39U G44U | 0.06 |
| G21U A26U G35U | 0.02 |
| G19U U43C C46A | 0.08 |
| U20A A24U C37U | 0 |
| G21A G36A G40A | 1.08 |
| G21C A39U U43A | 0.05 |
| G21U A26C C46A | 1.43 |
| G21A U32A G36U | 0.01 |
| U20A G27A U34A | 0.06 |

| Variant | self-cleavage |
| --- | --- |
| G21U C31A G35U | 0.08 |
| U20A G36C C37U G44C C46U | 0.05 |
| G21U G27C C37A | 0.05 |
| U20C G27A U32A G33A | 0.03 |
| U20A G21C U32A U34A | 0.01 |
| G21C G27C U38C C42A | 0.14 |
| U20C G21C C23G A25C | 0.23 |
| G21C C31A G36U | 0.04 |
| G19U U20G C31U G44U C45A | 0.15 |
| G21C G27U C31U G33A | 0.12 |
| G21U A24C U38C | 0.14 |
| G19C G27C U28A | 0.71 |
| G19C G30A U34C | 0.21 |
| G19U G29A G35U | 0.03 |
| G21U C31U G44C | 0.09 |
| U20A A24U C31G | 0 |
| G21C C23A C45G | 0.09 |
| G19U U20A A26U G33C C45A | 0.03 |
| G21U G30U U38C G40A | 0.09 |
| G19C U20C A25G U43A | 0 |
| G21A U34G G44A | 0.02 |
| G21A G30A G36C | 0.09 |
| U20C G27A G35A | 0.13 |
| U20C U28G U34G | 0.07 |

| Variant | self-cleavage |
| --- | --- |
| G21A A25C C37U | 0.04 |
| G19U C42A U43A C46G | 0.02 |
| G21U G22A C23A | 1.03 |
| U20C A25U A39U C42G G44U | 0.02 |
| G19U U34C C45U | 0.26 |
| G19U G27A G33A G44C | 0.18 |
| G21U C37G C42G | 0.04 |
| U20A A26C G40U C42G | 0.03 |
| U20C G35U A39C | 0.03 |
| G21U C23A U34G | 0.71 |
| U20C A26C U32C | 0.11 |
| G21C A24C G29A C46U | 0.16 |
| G21C U34G C37U U43C C46G | 0.04 |
| G19U G21C G27U G40C | 0.12 |
| G21U G22C A39U G40C A41C | 0.15 |
| G21C C23U A25C | 1.51 |
| U20G C31A A41U | 0.05 |
| U20C U34C C37G | 0.02 |
| G19C U32A G44U C46A | 0.03 |
| G19U U20G G21A G22C C23A C31A G35U U38G C46A | 0.1 |
| G19U G36U U43A | 0.01 |
| U20G G30U C46U | 0.54 |
| U20G U32G G35C | 0.01 |
| U20A G33U G44C | 0.05 |

| Variant | self-cleavage |
| --- | --- |
| G21C C23A U34G | 0.17 |
| G19U G36U C45G | 0.22 |
| G21U A24U G36U G44A | 0.07 |
| G21A U32G G36C | 0.05 |
| U20G G35U G44A | 0.03 |
| G19U U32A U38C G44C | 0.04 |
| G19U U43C G44U | 0.09 |
| G21U A26G G29C | 0.55 |
| U20A C37G A41U | 0.03 |
| G19C G30U U32C | 0.1 |
| U20A G29C C45U | 1.13 |
| G19C U38C G40C | 0.04 |
| G21A G30A C45A | 0.51 |
| U20A C37U U38G | 0.01 |
| U20C A26C U32G U38G C46A | 0.02 |
| G19U C23U U32A | 0.22 |
| U20A G21U G40U U43A | 0.02 |
| U20G G21U U38G G40C | 0.03 |
| G19C G27C A41U | 0.47 |
| G19U G35A G40U | 0.07 |
| G21C G27A A39G | 0.06 |
| G21U G22C C37G G40U C46G | 0.08 |
| G19U U28G U32A | 0.2 |
| G19U C23U U28A G30A C37A | 0.01 |

| Variant | self-cleavage |
| --- | --- |
| U20A A24C G29A U38A C42A | 0.04 |
| G21C C23G A26G | 0.29 |
| G19U U34C C37U G40A | 0.05 |
| G21A U32G U34C | 0.98 |
| G21A G27A U38C | 0.69 |
| U20A G22U U38G C42G | 0.03 |
| G19C G30C G36A | 0.13 |
| G19C G30U C31G | 0.09 |
| G21U C23A C45U | 0.96 |
| G19U G27A G35A | 0.07 |
| G21U G29U G35A | 0.18 |
| G21U G33A G40A | 0.08 |
| G21C G30C U32A C42A | 0.02 |
| U20A G22A A26G G40C | 0.05 |
| U20C C23U A26U C31U | 0.14 |
| G21A G22A A26U | 1.39 |
| U20G G30C C37U G40C C42A | 0.03 |
| G21C G22A U34G | 0.08 |
| U20A A24U G33A | 0.02 |
| U20A C23A G35U C37U | 0.03 |
| U20A G22C G30C C37G G40U C42A C45U | 0.02 |
| G21A G22U G27C U43G C46A | 0.02 |
| G21A G22C C46A | 0.89 |
